B1: PARP1 DNA-binding domain (DBD), fragment […], HA-tagged (domain or fragment)
chain: not shown
B2: chimera PARP2-1 ([…] of PARP2 fused to […] of PARP1) (enzyme, human)
chain: MAARRRRSTGGGRARALNESKRVNNGNTAPEDSSPAKKTRRCQRQESKKMPVAGGKANKDRTEDKQDESVKALLLKGKAPVDPDSGLEH[omitted - about 450 residues]
B3: PARP1 […] (CAT domain of PARP1 without the WGR) (domain or fragment)
chain: not shown

Legend:
[1] = target: PARP1 373–1014 (PARP1 DBD deletion mutant) (human, UniProt P09874 373-1014); experiment: co-IP
[2] = target: B1; experiment: co-IP

Row | binding result [1] | binding result [2] | Binder
1 | binds | – | B1
2 | – | binds | B2
3 | – | binds | B3

Reference: publication PMC2699514 (Nucleic Acids Research, 2009)
